According to the supplement of paper PMC12067093, “Discovery and optimisation of a covalent ligand for TRIM25 and its application to targeted protein ubiquitination” (Chemical Science, 2025):
Of roughly 21,000 targets only a part is listed; those with the largest changes were picked by preference.

Compound: CC1Cc2ccccc2N1C(=O)C1CCCN(C1)C(=O)CCl (mixture of isomers) [TRIM25 ligand 11 (diastereomer mixture)]
Assay: probe-labelled cysteine peptide fold change vs DMSO (competition) (log2 fold change); higher = less target engagement (more negative = stronger competition)
Conditions: THP-1, incubation time: 4 h
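Further: competitive chemoproteomic profiling in live THP-1 cells with an iodoacetamide desthiobiotin (IA-DTB) probe, comparing probe-labelled peptide intensities in compound-treated cells against DMSO-treated controls.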

UniProt P68104, sequence (P68104 whole entry, looked up): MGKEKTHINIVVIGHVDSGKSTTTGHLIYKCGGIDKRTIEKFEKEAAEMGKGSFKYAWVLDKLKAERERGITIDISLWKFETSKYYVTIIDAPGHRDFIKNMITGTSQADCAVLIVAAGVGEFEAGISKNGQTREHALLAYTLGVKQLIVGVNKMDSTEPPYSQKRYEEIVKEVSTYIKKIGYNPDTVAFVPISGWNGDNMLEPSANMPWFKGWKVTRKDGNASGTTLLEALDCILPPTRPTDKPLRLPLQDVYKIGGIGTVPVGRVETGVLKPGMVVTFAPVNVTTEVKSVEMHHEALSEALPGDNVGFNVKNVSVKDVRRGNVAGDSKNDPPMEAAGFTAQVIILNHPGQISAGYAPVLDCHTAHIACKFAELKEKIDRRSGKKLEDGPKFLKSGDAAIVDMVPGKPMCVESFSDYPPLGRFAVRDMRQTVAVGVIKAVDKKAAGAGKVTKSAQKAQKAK
UniProt Q16206, sequence (Q16206 whole entry): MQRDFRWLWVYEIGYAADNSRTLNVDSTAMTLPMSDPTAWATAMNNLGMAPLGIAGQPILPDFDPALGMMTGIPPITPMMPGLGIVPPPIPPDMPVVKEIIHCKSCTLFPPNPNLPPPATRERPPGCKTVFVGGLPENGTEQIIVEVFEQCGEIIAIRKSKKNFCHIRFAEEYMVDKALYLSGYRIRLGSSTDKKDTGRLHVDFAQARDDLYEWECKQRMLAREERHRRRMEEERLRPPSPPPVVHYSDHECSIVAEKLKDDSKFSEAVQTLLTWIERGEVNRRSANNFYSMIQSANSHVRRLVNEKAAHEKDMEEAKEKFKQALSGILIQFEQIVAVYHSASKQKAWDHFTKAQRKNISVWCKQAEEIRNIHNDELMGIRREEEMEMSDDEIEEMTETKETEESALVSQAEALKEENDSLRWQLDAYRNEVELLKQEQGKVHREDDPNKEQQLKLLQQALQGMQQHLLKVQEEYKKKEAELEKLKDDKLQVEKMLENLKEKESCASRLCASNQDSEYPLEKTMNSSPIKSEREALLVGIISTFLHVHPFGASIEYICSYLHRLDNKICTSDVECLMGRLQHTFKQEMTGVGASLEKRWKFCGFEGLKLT
UniProt P16591, sequence (P16591 whole entry, looked up): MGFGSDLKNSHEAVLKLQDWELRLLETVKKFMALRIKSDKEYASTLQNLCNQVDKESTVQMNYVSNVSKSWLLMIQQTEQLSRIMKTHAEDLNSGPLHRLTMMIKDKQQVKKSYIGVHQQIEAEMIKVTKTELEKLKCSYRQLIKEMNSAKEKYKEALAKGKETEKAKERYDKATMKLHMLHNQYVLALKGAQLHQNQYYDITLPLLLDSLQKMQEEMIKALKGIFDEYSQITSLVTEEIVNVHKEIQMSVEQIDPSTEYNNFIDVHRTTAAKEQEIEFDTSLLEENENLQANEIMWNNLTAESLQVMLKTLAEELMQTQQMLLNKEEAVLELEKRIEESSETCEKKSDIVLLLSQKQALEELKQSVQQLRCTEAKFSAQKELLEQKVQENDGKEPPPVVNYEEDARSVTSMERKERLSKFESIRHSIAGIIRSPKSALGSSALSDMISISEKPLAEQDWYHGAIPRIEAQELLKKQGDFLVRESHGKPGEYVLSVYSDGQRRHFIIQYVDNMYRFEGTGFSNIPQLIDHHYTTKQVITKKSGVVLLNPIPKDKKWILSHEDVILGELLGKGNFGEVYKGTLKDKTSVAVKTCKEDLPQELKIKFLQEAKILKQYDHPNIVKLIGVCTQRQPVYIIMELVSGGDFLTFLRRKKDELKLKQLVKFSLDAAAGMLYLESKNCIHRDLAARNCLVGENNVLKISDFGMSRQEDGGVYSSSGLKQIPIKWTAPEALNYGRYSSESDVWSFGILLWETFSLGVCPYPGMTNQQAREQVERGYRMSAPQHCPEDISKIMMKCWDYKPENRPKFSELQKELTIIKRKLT
UniProt P0C2W1, sequence (P0C2W1 whole entry, looked up): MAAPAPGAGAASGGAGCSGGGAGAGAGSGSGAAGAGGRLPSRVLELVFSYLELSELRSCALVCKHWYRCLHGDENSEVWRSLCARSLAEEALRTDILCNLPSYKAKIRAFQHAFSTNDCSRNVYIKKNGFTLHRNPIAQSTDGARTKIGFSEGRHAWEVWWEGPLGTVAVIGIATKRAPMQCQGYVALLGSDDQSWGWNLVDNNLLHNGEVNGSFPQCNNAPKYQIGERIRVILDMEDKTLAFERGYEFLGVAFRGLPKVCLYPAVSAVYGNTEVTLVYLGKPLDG
UniProt Q9BQS8, sequence (Q9BQS8 whole entry, looked up): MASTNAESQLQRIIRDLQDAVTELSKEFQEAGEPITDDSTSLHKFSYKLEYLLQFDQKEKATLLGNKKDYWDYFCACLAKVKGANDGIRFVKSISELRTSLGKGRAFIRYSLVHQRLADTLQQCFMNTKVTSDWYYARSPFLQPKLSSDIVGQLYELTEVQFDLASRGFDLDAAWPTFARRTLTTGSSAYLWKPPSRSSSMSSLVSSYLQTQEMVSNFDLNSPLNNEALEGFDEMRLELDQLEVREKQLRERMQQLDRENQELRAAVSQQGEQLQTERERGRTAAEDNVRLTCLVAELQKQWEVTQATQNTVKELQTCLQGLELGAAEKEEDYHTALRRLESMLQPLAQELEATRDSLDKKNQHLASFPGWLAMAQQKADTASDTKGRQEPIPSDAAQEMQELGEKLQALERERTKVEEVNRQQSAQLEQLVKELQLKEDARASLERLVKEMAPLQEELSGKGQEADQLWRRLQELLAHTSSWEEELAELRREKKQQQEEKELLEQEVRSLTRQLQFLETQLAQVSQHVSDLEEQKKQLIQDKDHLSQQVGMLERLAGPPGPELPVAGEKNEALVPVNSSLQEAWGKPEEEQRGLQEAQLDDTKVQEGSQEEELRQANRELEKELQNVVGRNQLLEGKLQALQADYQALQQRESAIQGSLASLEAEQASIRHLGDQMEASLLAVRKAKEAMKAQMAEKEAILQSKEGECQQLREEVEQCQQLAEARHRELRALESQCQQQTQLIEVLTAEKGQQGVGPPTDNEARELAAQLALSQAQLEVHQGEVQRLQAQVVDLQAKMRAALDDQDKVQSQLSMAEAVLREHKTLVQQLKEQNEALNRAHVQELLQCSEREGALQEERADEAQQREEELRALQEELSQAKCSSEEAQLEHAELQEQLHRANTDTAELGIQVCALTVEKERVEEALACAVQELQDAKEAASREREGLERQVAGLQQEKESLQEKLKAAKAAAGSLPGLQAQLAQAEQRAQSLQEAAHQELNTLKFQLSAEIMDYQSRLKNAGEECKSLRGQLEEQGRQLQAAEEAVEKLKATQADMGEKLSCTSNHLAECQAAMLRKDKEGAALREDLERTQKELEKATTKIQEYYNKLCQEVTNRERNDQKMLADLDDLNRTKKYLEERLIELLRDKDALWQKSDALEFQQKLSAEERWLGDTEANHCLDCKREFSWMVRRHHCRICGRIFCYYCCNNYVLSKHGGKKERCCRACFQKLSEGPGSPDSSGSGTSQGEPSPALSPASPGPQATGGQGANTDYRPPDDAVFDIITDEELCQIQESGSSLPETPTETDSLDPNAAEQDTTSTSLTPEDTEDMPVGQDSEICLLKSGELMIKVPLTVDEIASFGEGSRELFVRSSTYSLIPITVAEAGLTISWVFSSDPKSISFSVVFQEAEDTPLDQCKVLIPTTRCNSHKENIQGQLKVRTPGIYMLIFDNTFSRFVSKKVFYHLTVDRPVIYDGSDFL
UniProt Q6P2E9, sequence (Q6P2E9 whole entry, looked up): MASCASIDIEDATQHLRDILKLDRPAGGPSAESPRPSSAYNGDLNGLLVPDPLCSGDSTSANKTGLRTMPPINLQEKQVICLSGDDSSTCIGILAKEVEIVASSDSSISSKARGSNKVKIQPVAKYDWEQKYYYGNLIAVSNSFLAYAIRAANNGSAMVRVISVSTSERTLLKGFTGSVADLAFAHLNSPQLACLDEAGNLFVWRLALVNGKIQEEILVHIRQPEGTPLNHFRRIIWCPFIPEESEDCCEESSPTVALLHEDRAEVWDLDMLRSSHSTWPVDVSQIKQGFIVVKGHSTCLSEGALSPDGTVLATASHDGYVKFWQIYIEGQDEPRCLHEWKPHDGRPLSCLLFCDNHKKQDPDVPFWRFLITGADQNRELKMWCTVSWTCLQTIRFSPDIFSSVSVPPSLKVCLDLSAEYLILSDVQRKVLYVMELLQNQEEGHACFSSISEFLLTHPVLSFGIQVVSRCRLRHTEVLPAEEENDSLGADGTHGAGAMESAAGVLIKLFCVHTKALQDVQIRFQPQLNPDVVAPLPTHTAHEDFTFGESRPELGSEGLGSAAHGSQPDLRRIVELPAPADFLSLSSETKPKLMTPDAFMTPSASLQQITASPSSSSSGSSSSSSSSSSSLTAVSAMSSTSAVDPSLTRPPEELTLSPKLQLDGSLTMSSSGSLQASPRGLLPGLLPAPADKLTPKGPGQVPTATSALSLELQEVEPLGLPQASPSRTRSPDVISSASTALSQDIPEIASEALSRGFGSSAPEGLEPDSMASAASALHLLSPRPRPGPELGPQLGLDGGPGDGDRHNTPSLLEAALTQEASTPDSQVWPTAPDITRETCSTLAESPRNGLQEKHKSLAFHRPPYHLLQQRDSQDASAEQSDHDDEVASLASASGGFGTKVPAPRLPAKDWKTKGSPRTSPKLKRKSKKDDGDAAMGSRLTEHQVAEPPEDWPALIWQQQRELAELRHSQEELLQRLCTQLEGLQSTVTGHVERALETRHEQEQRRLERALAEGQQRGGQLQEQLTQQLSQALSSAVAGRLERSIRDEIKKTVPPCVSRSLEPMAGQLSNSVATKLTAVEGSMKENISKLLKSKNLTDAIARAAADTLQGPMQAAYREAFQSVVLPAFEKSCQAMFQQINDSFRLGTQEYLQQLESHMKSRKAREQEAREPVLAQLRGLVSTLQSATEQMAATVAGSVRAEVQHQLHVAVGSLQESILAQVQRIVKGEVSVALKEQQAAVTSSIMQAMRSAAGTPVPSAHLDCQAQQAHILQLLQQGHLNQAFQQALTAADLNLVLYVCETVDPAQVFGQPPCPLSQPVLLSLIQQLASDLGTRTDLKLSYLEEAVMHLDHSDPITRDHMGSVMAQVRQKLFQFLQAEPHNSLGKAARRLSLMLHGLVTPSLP

Target	probe-labelled cysteine peptide fold change (10 µM)	probe-labelled cysteine peptide fold change (50 µM)
EPHX2_P34913_314_GYGESSAPPEIEEYCMEVLCK (UniProt P34913)	0.202	0.106
EIF3I_Q13347_99_TCGFDFGGNIIMFSTDK (UniProt Q13347)	0.0398	-0.0272
FARSB_Q9NSD9_195_EYTACELMNIYK (UniProt Q9NSD9)	-0.0943	-0.133
EHMT2_Q96KQ7_126_GGSCPSR (UniProt Q96KQ7)	0.757	0.0982
FKBP5_Q13451_394_LQISMCQK (UniProt Q13451)	-0.0666	-0.157
FN3KRP_Q9HA64_11_RELGCSSVR (UniProt Q9HA64)	-0.0218	0.00455
FBXO3_Q9UK99_136_EGAREEDLDAVEAQIGCK (UniProt Q9UK99)	-0.113	-0.0991
ERO1A_Q96HE7_99_RDCAVKPCQSDEVPDGIK (UniProt Q96HE7)	0.066	-0.0613
EFEMP1_Q12805_298_LNCEDIDECR (UniProt Q12805)	0.34	0.306
EGLN1_Q9GZT9_266_EPGCETIGLLMSSMDDLIR (UniProt Q9GZT9)	0.585	0.341
FBXL18_Q96ME1_406_HLCQLLAR (UniProt Q96ME1)	-0.0499	0.00154
ESRRA_P11474_46_CLPGHKEEEDGEGAGPGEQGGGK (UniProt P11474)	-0.071	-0.233
ECH1_Q13011_171_PVIAAVHGGCIGGGVDLVTACDIR (UniProt Q13011)	0.217	0.648
FANCI_Q9NVI1_908_SISLLCLEGLQK (UniProt Q9NVI1)	-0.114	0.0111
FTSJ1_Q9UET6_295_EIRPQDCPISR (UniProt Q9UET6)	-0.0202	-0.23
EFTUD2_Q15029_639_VEESGEHVILGTGELYLDCVMHDLRK (UniProt Q15029)	0.00776	0.0383
EIF3J_O75822_188_DVCISLEIDDLKK (UniProt O75822)	0.022	-0.0275
FAM129A_Q9BZQ8_194_FSALLSDCVR (UniProt Q9BZQ8)	-0.0662	-0.00207
EHD4_Q9H223_495_LADCDCDGMLDEEEFALAK (UniProt Q9H223)	0.0484	-0.0124
EIF3E_P60228_345_LFIFETFCR (UniProt P60228)	0.435	0.338
FAM3C_Q92520_185_DNWVFCGGK (UniProt Q92520)	0.0668	0.0708

Target	probe-labelled cysteine peptide fold change (10 µM)	probe-labelled cysteine peptide fold change (50 µM)
ETV6_P41212_452_TDRLEHLESQELDEQIYQEDEC (UniProt P41212)	-0.183	-0.279
FAM83H_Q6ZRV2_789_SLESCLLDLR (UniProt Q6ZRV2)	-0.223	0.666
EPS15_P42566_586_VCSELDNNR (UniProt P42566)	-0.0738	-0.0904
EEFSEC_P57772_406_AGQATEGHCPR (UniProt P57772)	0.261	0.9
F2_P00734_564_GDACEGDSGGPFVMK (UniProt P00734)	0.617	0.448
FBXL6_Q8N531_476_DLEQALAAFLSTPGGSHPALCSLNLR (UniProt Q8N531)	0.177	-0.209
FUCA2_Q9BTY2_455_LLGHGQPLNWISLEQNGIMVELPQLTIHQMPCK (UniProt Q9BTY2)	0.558	-0.0872
FAM208B_Q5VWN6_873_AHAAEVSFRDPNCLLPFIK (UniProt Q5VWN6)	-0.00307	-0.148
FHL1_Q13642_43_FCANTCVECR (UniProt Q13642)	0.0551	0.0815
FKBP9_O95302_214_GLLGMCVGEK (UniProt O95302)	-0.188	0.15
FER_P16591-3_26_TCALMFSSEPSTSEVHRDQER (UniProt P16591)	0.171	0.143
FTO_Q9C0B1_136_HTEAEIAAACETFLK (UniProt Q9C0B1)	-0.0653	-0.153
ECPAS_Q5VYK3_116_QCELAPTLLTAMEGKPQPQQDSLMHLLIPTLFHMK (UniProt Q5VYK3)	0.139	-0.227
EGLN1_Q9GZT9_323_CVTCIYYLNK (UniProt Q9GZT9)	0.189	0.0838
FYN_P06241_404_SANILVGNGLICK (UniProt P06241)	-0.0436	-0.0577
FASN_P49327_496_GGPEVQQVPAGERPLWFICSGMGTQWR (UniProt P49327)	0.138	0.0338
FBL_P22087_268_ANCIDSTASAEAVFASEVKK (UniProt P22087)	-0.00811	0.0128
ETF1_P62495_302_YCFGVEDTLK (UniProt P62495)	0.296	0.118
FAM129A_Q9BZQ8_891_IHECQWVVEDAPNPDVLLSHKDDVK (UniProt Q9BZQ8)	-0.122	-0.306
FBXO3_Q9UK99_324_ACQLDSR (UniProt Q9UK99)	0.0804	0.0189
EHBP1L1_Q8N3D4_1364_FQDTSQYVCAELQALEQEQR (UniProt Q8N3D4)	0.371	0.594

Target	probe-labelled cysteine peptide fold change (10 µM)	probe-labelled cysteine peptide fold change (50 µM)
FBXO22_Q8NEZ5_7_MEPVGCCGECR (UniProt Q8NEZ5)	0.891	0.848
FILIP1L_Q4L180_737_IHEYMATEDLICHLQGDHSVLQK (UniProt Q4L180)	0.0105	-0.229
ERO1B_Q86YB8_165_YDDSRDHFCELDDERSPAAQYVDLLLNPER (UniProt Q86YB8)	-0.0829	-0.0995
EFTUD2_Q15029_780_EGPLCDELIR (UniProt Q15029)	-0.138	-0.127
ENOX2_Q16206_216_DDLYEWECK (UniProt Q16206)	0.0541	0.162
EPRS_P07814_336+337_GSQFGQSCCLR (UniProt P07814)	-0.0177	-0.139
FYCO1_Q9BQS8_928_ERVEEALACAVQELQDAK (UniProt Q9BQS8)	0.00402	-0.00394
F2_P00734_594_WYQMGIVSWGEGCDR (UniProt P00734)	0.929	0.567
EXOC2_Q96KP1_373_YLSDLHASGDPAWQCIGAQHK (UniProt Q96KP1)	0.0266	-0.377
EIF2AK4_Q9P2K8_118_HCGEVMIFELAYHVQSFLSEHNKPPPK (UniProt Q9P2K8)	0.231	0.0104
FUBP1_Q96AE4_148_SCMLTGTPESVQSAKR (UniProt Q96AE4)	-0.259	-0.0811
EFEMP1_Q12805_338_TCQDINECETTNECREDEMCWNYHGGFR (UniProt Q12805)	0.561	0.0993
ELL_P55199_411_DCEHGEAAAPAPTVR (UniProt P55199)	-0.312	0.154
EEF1A1_P68104_370_NDPPMEAAGFTAQVIILNHPGQISAGYAPVLDCHTAHIACK (UniProt P68104)	-0.0321	-0.0387
FKBP3_Q00688_133_KGDVVHCWYTGTLQDGTVFDTNIQTSAKK (UniProt Q00688)	-0.291	-0.0697
EIF4G3_O43432_930_NHDEESLECLCR (UniProt O43432)	0.145	0.571
FLNB_O75369_1081_GAGTGGLGLTVEGPCEAK (UniProt O75369)	-0.138	-0.0358
EIF3CL_B5ME19_481_DEAQVCAIIER<|>EIF3C_Q99613_480_DEAQVCAIIER (UniProt Q99613+B5ME19)	0.0299	0.0311
EFR3A_Q14156_538_HIYLGCK (UniProt Q14156)	0.217	0.169
FAM208A_Q9UK61_1421_NAPELDCLIR (UniProt Q9UK61)	0.0104	-0.107
FBXO45_P0C2W1_98_TDILCNLPSYK (UniProt P0C2W1)	-0.0226	0.569

Target	probe-labelled cysteine peptide fold change (10 µM)	probe-labelled cysteine peptide fold change (50 µM)
FMR1_Q06787_584_VDCNNER (UniProt Q06787)	0.821	0.479
EPRS_P07814_1309_VACVQVVIIPCGITNALSEEDK (UniProt P07814)	-0.0118	0.0556
F11R_Q9Y624_74_LVCYNNK (UniProt Q9Y624)	0.0292	0.141
EIF3I_Q13347_81_LWDCETGK (UniProt Q13347)	0.0345	-0.0868
FAIM_Q9NVQ4_149_KLETAGEFVDDGTETHFSIGNHDCYIK (UniProt Q9NVQ4)	0.126	-0.0565
FSCN1_Q16658_89_EVPGPDCR (UniProt Q16658)	-0.0199	0.201
FARS2_O95363_413_TSHCYR (UniProt O95363)	0.0791	0.184
FAM120A_Q9NZB2_669_SPQTPELVEALAFREWTCPNLK (UniProt Q9NZB2)	-0.577	-0.435
ERMP1_Q7Z2K6_43_AQEPLVDGCSGGGR (UniProt Q7Z2K6)	-0.0702	-0.135
FCF1_Q9Y324_154_CYIVATVDRDLK (UniProt Q9Y324)	-0.153	-0.0908
EME1_Q96AY2_437_ELADFTCAFTK (UniProt Q96AY2)	-0.0176	0.0515
FBLN1_P23142_556_CLAFECPENYRR (UniProt P23142)	0.59	0.279
ELMSAN1_Q6PJG2_502_CGVEFSEPSLATK (UniProt Q6PJG2)	-0.123	-0.314
EXD2_Q9NVH0_133_ASPLSLLQMASPSGLCVLVR (UniProt Q9NVH0)	-0.255	-0.992
EED_O75530_324+330_SCENAIVCWKPGK (UniProt O75530)	0.0705	0.0442
ERO1A_Q96HE7_394_IMDCVGCFK (UniProt Q96HE7)	-0.2	0.124
FKBP5_Q13451_103_KGEICHLLCK (UniProt Q13451)	0.175	0.249
FUS_P35637_433_CPNPTCENMNFSWR (UniProt P35637)	-0.0606	-0.0258
EIF5_P55010_102_FVLCPECENPETDLHVNPK (UniProt P55010)	-0.0191	-0.0603
EDC4_Q6P2E9_510_LFCVHTK (UniProt Q6P2E9)	0.0229	0.0623
FABP5_Q01469_127_LVVECVMNNVTCTR (UniProt Q01469)	0.0403	0.0166
